# Measurements as given in PubChem BioAssay AID1461 (National Center for Advancing Translational Sciences (NCATS), 2008).
# In all, about 220,000 compounds went through this assay and about 2,300 (1%) were called active. Inconclusive means that the source gave no clear call. Such entries were picked first, then a sample of the others. Calls follow the shape of the dose curve; as a rule, active = well fitted inhibition curve with a large enough effect; inconclusive = small, poorly fitted or top-dose-only effect, or effect the other way; inactive = no such curve, though single readings can be large or run the other way. Potencies of inconclusive entries are left out as doubtful fits.
# Target: Neuropeptide S receptor (Homo sapiens) (UniProt Q6W5P4)
# UniProt Q6W5P4, sequence (Q6W5P4 whole entry, looked up): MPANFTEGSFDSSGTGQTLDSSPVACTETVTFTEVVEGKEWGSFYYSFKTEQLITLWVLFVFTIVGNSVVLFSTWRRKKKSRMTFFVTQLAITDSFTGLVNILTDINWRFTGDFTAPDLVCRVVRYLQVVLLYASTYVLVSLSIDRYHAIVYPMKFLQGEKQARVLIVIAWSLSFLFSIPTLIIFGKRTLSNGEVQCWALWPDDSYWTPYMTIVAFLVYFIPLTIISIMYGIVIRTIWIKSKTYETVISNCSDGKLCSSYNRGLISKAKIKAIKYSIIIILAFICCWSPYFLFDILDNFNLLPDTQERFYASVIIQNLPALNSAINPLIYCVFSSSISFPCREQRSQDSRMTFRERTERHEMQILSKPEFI
# Assay: qHTS Assay for Antagonists of the Neuropeptide S Receptor: cAMP Signal Transduction; also: nearly all actives have a fitted effect of over 50% in size
# Details: CHO-NPSR cells, cAMP TR-FRET, antagonist mode; activity change, negative = inhibition: at 38.3 µM (top of the series) unless noted
# % is scaled to controls: 0 for no effect and ±100 for the full control effect; potency is read from the fitted curve at half-maximal effect; tags tell the direction and shape of the fitted curve.
SMILES,Potency,"activity change, negative = inhibition"
CCOC(=O)C1=C(C)NC(SC)=NC1c1ccc(OC)cc1 (stereo not given),"inconclusive [activator, single point]",–
O=c1[nH]c(=O)n(Cc2ccccc2)c2nc(-c3ccco3)cc(C(F)(F)F)c12,"inconclusive [inhibitor, partial curve, poor fit]",–
OCCNCc1cc(Br)ccc1OCc1ccccc1Cl,"inconclusive [activator, partial curve]",–
COc1ccc(NC(=O)CSc2c(C)n[nH]c2C)cc1,–,inactive: 4.38% [at 46.1 µM]
CN(C)c1ccc(NC(=O)CSCc2nc3c(nnn3Cc3ccc(F)cc3)c(=O)[nH]2)cc1,"inconclusive [inhibitor, partial curve]",–
CC(=O)C(C)Oc1ccc2c3c(c(=O)oc2c1)CCCCC3 (stereo not given),"inconclusive [inhibitor, single point]",–
COc1ccc(C)cc1-n1nnnc1SCC(=O)c1cc(C)n(Cc2ccco2)c1C,"inconclusive [inhibitor, partial curve]",–
CC1=NOC(=O)/C1=C\c1ccc(-c2cc(Cl)ccc2Cl)o1,active: 10 µM,–
O=C(CN1C(=O)CCC1=O)c1ccc(-c2ccccc2)cc1,–,inactive: 17.4%
O=c1c2oc3ccccc3c2[nH]c(=S)n1-c1ccc(F)cc1,active: 10 µM,–
CCCN1C(=O)C(Cc2nc3ccccc3c(=O)n2C)c2ccccc21 (stereo not given),–,inactive: -18.4% [at 46.1 µM]
COc1ccc(-c2nnc3sc(-c4ccco4)nn23)cc1OC,"inconclusive [inhibitor, single point]",–
O=C(CCS(=O)(=O)c1ccc(Cl)cc1)N1CCN(S(=O)(=O)c2cccs2)CC1,"inconclusive [inhibitor, full curve, poor fit]",–
CCN1C=C(Cc2ccc(F)cc2)C2=C(C1)C(c1ccc(F)cc1)C(C#N)=C(N)O2 (stereo not given),active: 10 µM,–
CCOC(=O)COc1ccc(S(=O)(=O)N2CCN(c3ccc(F)cc3)CC2)cc1,"inconclusive [inhibitor, partial curve, poor fit]",–
CCCCOc1ccc(Cl)cc1CSc1n[nH]c(C)n1,"inconclusive [inhibitor, partial curve]",–
Cc1ccc(S(=O)(=O)N(C)c2cc(S(=O)(=O)N3CCC(C)CC3)c(C)cc2C)cc1,"inconclusive [inhibitor, partial curve]",–
CCOC(=O)c1ccc(Nc2ncnc3ccc(C)cc23)cc1,–,inactive: -6.5% [at 46.1 µM]
O=C(Oc1ccccc1)c1cc2ccccc2o1,–,inactive: 1.43% [at 46.1 µM]
COc1cc(N/N=C(\C)c2ccc(O)c(C)c2)nc(-c2ccccc2)n1,"inconclusive [activator, partial curve]",–
Cn1c(SCC(=O)NC2CC2)nnc1-c1ccco1,"inconclusive [inhibitor, single point]",–
COc1ccc(CCNc2oc(-c3ccccc3OC)nc2C#N)cc1,"inconclusive [inhibitor, partial curve]",–
O=C(COc1ccc(C(=O)c2ccccc2)cc1)NCc1ccc(F)cc1,"inconclusive [activator, single point]",–

SMILES,Potency,"activity change, negative = inhibition"
COc1ccccc1-c1cc(C(=O)NC(C)c2ccccc2)no1 (stereo not given),"inconclusive [inhibitor, single point]",–
Cc1ccc(C)c2[nH]c(=O)c(C(c3nnnn3Cc3ccccc3)N3CCc4ccccc4C3)cc12 (stereo not given),–,inactive: -17% [at 46.1 µM]
COc1ccc2[nH]c(=O)c(CN(C(=O)COc3ccccc3)C(C)C)cc2c1,"inconclusive [activator, single point]",–
CNc1cc([N+](=O)[O-])ccc1OCc1ccccc1,–,inactive: -10.5%
COc1ccc(-n2c3c(cc(C(=O)NCc4ccco4)c2=O)C(=O)CC(C)(C)C3)cc1,–,inactive: 37%
Cc1ccc(-n2c(-c3ccco3)nc3c(cnn3-c3ccccc3C)c2=O)cc1,"inconclusive [inhibitor, single point]",–
CCC(=O)Nc1ccc(NC(=S)Nc2ccccc2)cc1,–,inactive: 11.3%
Nc1n[nH]c(-c2ccccc2)c1-c1ccccc1,"inconclusive [inhibitor, partial curve, poor fit]",–
O=C(CC1C=Cc2ccccc2N1C(=O)c1ccccc1)c1ccccc1 (stereo not given),"inconclusive [inhibitor, single point]",–
CCOC(=O)c1c(CN2CCOCC2)n(-c2ccccc2)c2cc(Br)c(O)cc12,"inconclusive [inhibitor, partial curve]",–
COc1ccc(S(=O)(=O)N2CCCC2C(=O)Nc2nnc(-c3cccnc3)s2)cc1 (stereo not given),"inconclusive [inhibitor, partial curve, poor fit]",–
O=C1CC(N(CCc2ccccc2)C(=S)Nc2cc(Cl)ccc2Cl)C(=O)N1c1c(Cl)cccc1Cl (stereo not given),"inconclusive [inhibitor, partial curve]",–
O=C(NC12CC3CC(CC(C3)C1)C2)N1CCN(c2nc(-c3ccccc3)cs2)CC1,"inconclusive [inhibitor, single point]",–
Cc1ccc(NC(=S)N/N=C2\CCCCC2C)cc1 (stereo not given),–,inactive: -24.4%
O=C(CN(c1ccc(Cl)c(Cl)c1)S(=O)(=O)c1ccccc1)N1CCc2ccccc2C1,"inconclusive [inhibitor, single point]",–
Cc1ccc(C2C(C#N)=C(N)OC3=C2C(=O)CC(C)(C)C3)s1 (stereo not given),–,inactive: -0.811%
Clc1ccc(Cn2c(-c3cccnc3Cl)nc3ccccc32)cc1,"inconclusive [inhibitor, partial curve]",–
Cc1ccccc1N(CC(=O)NCCSC1CCCCC1)S(=O)(=O)c1ccccc1,"inconclusive [inhibitor, single point]",–
Cc1ccc(C(=O)Nc2cccc(C(F)(F)F)c2)cc1Nc1ncnc2nc[nH]c12,–,inactive: -15.1%
CCOC(=O)c1sc2nc(C3CC3)cc(-c3ccc(OC)cc3)c2c1N,–,inactive: 22.3% [at 46.1 µM]
Cc1ccc(-n2[nH]c(C)c(C=Nc3ccc(S(=O)(=O)Nc4nccs4)cc3)c2=O)cc1,–,inactive: -17.1%
Cc1ccc(S(=O)(=O)NCC23C=CC(O2)C2C(=O)N(c4ccccc4)C(=O)C23)cc1 (stereo not given),–,inactive: -3.67% [at 46.1 µM]
